Experimental data from the RNAGym collection of RNA variant scans (doi:10.7554/elife.90254).
Read counts are not given, so values of variants with three or more changes are uncertain.

B1: LINE1-full (parent)
chain: UACGUAGGUGGUUUUCCCCUGAUAGUGCUAAGGGGGCCUGGAAGUUUGGACUGGGCAGAGCUCAACACAGCGUGGCAAAGUGGCUGUGGCUAGACUGCCUCUCUGGAUUCCUCGUCACUCAGCAGGGCAUCUCUGAGAGAAAUGCC

Variants of: B1
Assay: self-cleavage, relative activity (ratio to wild type); higher = more cleavage; in vitro, sequencing; the parent is a self-cleaving ribozyme

| Variant | self-cleavage |
| --- | --- |
| A30C A50G A65G U87A | 0.22 |
| U29C G60A U132C | 0.38 |
| A30G U52A U112C U132A G137U | 1.31 |
| A31G A69U U73A A107U A136U | 0.07 |
| A31U U39C A42U A50G A79G | 0.3 |
| U29C U87C U143C | 0 |
| A31U C68U U108C U112C | 0 |
| A31U A65G U104C | 0 |
| G32A C131U A138G | 0.78 |
| A30G U46A U134A | 0.63 |
| A31U U115A U143C | 0.86 |
| U29C A136U A140G | 1.31 |
| A30U A129G A141G | 0.92 |
| G32A U104G A141G | 1.15 |
| A31G G48A U62C | 0.07 |
| A30U A64U A107U A136G | 0.42 |
| A30G A64U G83A | 0.38 |
| G33A A65G C118U A142G | 0.04 |
| A31G A129U U130C | 0.46 |
| A30U A94U U102C | 0.65 |
| A30G U112C A138G | 1.23 |
| U29C U85C A107G G114A C128U A138G | 0.43 |
| A30G U62A G106A | 0.07 |
| G32A A43G A69U | 0 |

| Variant | self-cleavage |
| --- | --- |
| U29G A30G A42G U62A | 0 |
| A30G U81C G88A G93A | 0.09 |
| U29G C76G A117G | 1.51 |
| U29C A79G U87C | 0.68 |
| A30G U87C A138G | 0.3 |
| U29C G35A U45G A65G | 0.1 |
| U29C C63U A67U A92G A107U | 0.06 |
| A31G C61A A138G | 0.05 |
| U29C U47C U52A | 0.74 |
| G32C U39C G137A A140U | 1.34 |
| A30G A42G U108C | 0.77 |
| A30G G97A U132C | 0.51 |
| U29C A69G A142G | 0 |
| A30G A67G A141G | 0.44 |
| G32A U104A A142G | 0.65 |
| A30G G44A C84U A121G | 0.5 |
| A30U A42G G53U A79U A141G | 1.01 |
| A30G U104A U115A | 0.4 |
| A30C A42U U130A A138G | 1.39 |
| U29C U85C A117G | 0.73 |
| G32A U46A A67G | 0.75 |
| A31U U46C A69U G72A | 0.09 |
| A30G U45A U96C U100C U130C A142G | 0 |
| A30G G58A U100A | 0.04 |

| Variant | self-cleavage |
| --- | --- |
| U29C U85C A140G | 0.44 |
| G32A U47C U62A U85C U87A A94G U130C | 0 |
| A30G U109C G114A G135U A138G | 1.06 |
| U29C G83A C103A U134G A142G | 1.33 |
| A31G A42U A121G | 1.37 |
| U29G G122C A129U | 0.89 |
| G33A A64U U85C A140G | 0.05 |
| A31U U62C A78G | 0.2 |
| G32A U39C U85C C113U U134C | 0.13 |
| A31U U85A A92G U132A | 0.23 |
| G33A G86C A129G | 0.04 |
| A31U A69G A94U A129G | 0 |
| U29C G53U U62C C131U U134C | 0.05 |
| A30C U39A A117U | 1.62 |
| G33A A67U C116U | 0.09 |
| A30G U39C U100A A138G | 1.02 |
| G33A A50G U52A A94G | 0 |
| A31C C37U U47A | 0.85 |
| A31G A69U U96A | 0.02 |
| U29C C56A U62A A121C | 0.06 |
| A31G A43G U62A A117G | 0 |
| U29C U102C U104A A142G | 0.44 |
| U29C U46C U119C A142G | 2.16 |
| U29C U85C U96C | 0.56 |

| Variant | self-cleavage |
| --- | --- |
| U29C A43G U81A U112C | 2.51 |
| A30G U45C U119C A142G | 0.81 |
| A31G C38U G55A A65G | 0.06 |
| A30U U47C A138G | 1.3 |
| A30G C63A A77G A121G | 0.13 |
| G32U C71U U85A | 0.05 |
| G32U U73C A107U A140U | 2.07 |
| G32A A64G A138G | 0.36 |
| A31C A65G U85A A140G | 0 |
| A30U U52A U62C U102C U115C | 0.44 |
| A30U C98U U115C | 0.39 |
| A31G A42G G80A | 1.76 |
| A31U G54U A57G | 0.35 |
| A30U U46A G88A A140U | 0.03 |
| G33C U46C U52C A129G | 0 |
| G32A U132A A142G | 1.07 |
| A30U G86A G97A A136G | 0.04 |
| G32C A50G U134C | 1.02 |
| A30G C63A U85C A92G U109C A124U | 0 |
| A31U A43U A57C G58A C63A | 0.09 |
| U29C A77G U81C U108A | 1.31 |
| A30G C56G U100C | 0.47 |
| A31G G48A A50U | 1.17 |
| G33A G127A A136G | 1.49 |

| Variant | self-cleavage |
| --- | --- |
| U29C A79U A107G U130C | 2.09 |
| A31G A43G U112C | 1.19 |
| U29C U87C U132C | 0 |
| A31U A65G A142G | 0 |
| A31G G35A A69G A124U | 0.16 |
| A31U U47C G48U | 1.25 |
| A31G G54A U81C A94U A141G | 0 |
| A31G U102C A121C | 1.38 |
| G32A U115A A129G | 0.8 |
| A31G A42G A69G U130A A142G | 0 |
| U29C U104A U108C | 1.56 |
| U29C G32A U96A U112C | 0.06 |
| U29C U46A A138U | 0.53 |
| A31C A78G A121U U134C | 0.52 |
| U29G G34U U46C G89A U134C | 0.11 |
| A30U A50G C63U A78G A94G | 0 |
| G33U U73C A78G G86A U132C | 0.07 |
| G32C U52C A64G | 0.5 |
| G33U U91A A94G U100G | 0.11 |
| A30U G48A U96C | 0.16 |
| A31U A57G G80A A124G | 0.36 |
| A30C A57U A65G A67U U104C | 0 |
| U29C U100C G126A | 2.16 |
| G32A A65G G70A U134A | 0 |

| Variant | self-cleavage |
| --- | --- |
| U29C A50G U132C A142G | 0 |
| U29C A124U A136G U143C | 1.19 |
| G33U A42G A117G | 0.69 |
| A30G U109C A117C U119A | 2.55 |
| G33C U39A U119A C146A | 0.51 |
| G32A A57G U104A | 0.17 |
| A31C A77U U81C | 1.19 |
| G33A A57G C113A | 0.51 |
| A30U U46A U87C U108C U130C A136U | 0 |
| U29C G41U A69G | 0.14 |
| A30C U39A U115C | 1.72 |
| G32A U39C U96C U115C | 0 |
| U29C G58U U81G | 0.07 |
| A31G A92G U130A | 0 |
| A31U G44U A59G A77U U100C | 0.2 |
| G32A A57U U62A | 0.28 |
| A30G A78C U134C A140G | 0.84 |
| A31G U96G U115A A138G | 0.16 |
| G32A U81A U132C | 2.1 |
| A30G A59G A129G | 0.8 |
| A31G U73A A124G | 1.16 |
| U29C A136U A141G | 1.9 |
| A31G G35A U87A A129U | 0.08 |
| G33A A65G U119C | 0.03 |

| Variant | self-cleavage |
| --- | --- |
| U29C U91C U102A | 1.84 |
| G32C G82A U104A U108C | 1.63 |
| A30G A50U A92G | 0 |
| A31G U119A U134C | 2.33 |
| A30G G35A U115A A138U | 0.94 |
| A31G A77G A138U | 2.53 |
| U29G A42G U46C | 1.31 |
| A31C C120A A138G | 1.07 |
| A31U C84U U112C A117G | 0.07 |
| G32A A77U U132C | 1.06 |
| A31U G35U G44A A59C A69U A92G U108C | 0 |
| A30G U81G U115C | 1.84 |
| G33C U73C A129U | 0.33 |
| U29G U47A A57G C103A U108C | 1.7 |
| G33A A43G U46C A64U A129G | 0.26 |
| A31G U52C U85A U132C | 0.28 |
| A30U U104C U108C | 0.98 |
| U29G G48A A121U | 0.98 |
| G33U U46C A78G | 1.79 |
| A30G U52A A64U U73A U109C | 0.74 |
| A31G A92G U132C A136G | 0.48 |
| G33C A57G U73C U96A | 0 |
| A30G G58A A67G U73C | 0.14 |
